B1: ftsB W14A (protein)
chain: MGKLTLLLLAILVALQYSLWFGKNGIHDYTRVNDDVAAQQATNAKLKARNDQLFAEIDDLNGGQEALEERARNELSMTRPGETFYRLVPDASKRAQSAGQNNR
B2: ftsB W14P (protein)
chain: MGKLTLLLLAILVPLQYSLWFGKNGIHDYTRVNDDVAAQQATNAKLKARNDQLFAEIDDLNGGQEALEERARNELSMTRPGETFYRLVPDASKRAQSAGQNNR
B3: ftsB W14D (protein)
chain: MGKLTLLLLAILVDLQYSLWFGKNGIHDYTRVNDDVAAQQATNAKLKARNDQLFAEIDDLNGGQEALEERARNELSMTRPGETFYRLVPDASKRAQSAGQNNR
B4: ftsB W14Q (protein)
chain: MGKLTLLLLAILVQLQYSLWFGKNGIHDYTRVNDDVAAQQATNAKLKARNDQLFAEIDDLNGGQEALEERARNELSMTRPGETFYRLVPDASKRAQSAGQNNR
B5: argC V151A (protein)
chain: MLNTLIVGASGYAGAELVTYVNRHPHMNITALTVSAQSNDAGKLISDLHPQLKGIVDLPLQPMSDISEFSPGVDVVFLATAHEVSHDLAPQFLEAGCVVFDLSGAFRVNDATFYEKYYGFTHQYPELLEQAAYGLAEWCGNKLKEANLIAAPGCYPTAAQLALKPLIDADLLDLNQWPVINATSGVSGAGRKAAISNSFCEVSLQPYGVFTHRHQPEIATHLGADVIFTPHLGNFPRGILETITCRLKSGVTQAQVAQVLQQAYAHKPLVRLYDKGVPALKNVVGLPFCDIGFAVQGEHLIIVATEDNLLKGAAAQAVQCANIRFGYAETQSLI
B6: argC V151Q (protein)
chain: MLNTLIVGASGYAGAELVTYVNRHPHMNITALTVSAQSNDAGKLISDLHPQLKGIVDLPLQPMSDISEFSPGVDVVFLATAHEVSHDLAPQFLEAGCVVFDLSGAFRVNDATFYEKYYGFTHQYPELLEQAAYGLAEWCGNKLKEANLIAQPGCYPTAAQLALKPLIDADLLDLNQWPVINATSGVSGAGRKAAISNSFCEVSLQPYGVFTHRHQPEIATHLGADVIFTPHLGNFPRGILETITCRLKSGVTQAQVAQVLQQAYAHKPLVRLYDKGVPALKNVVGLPFCDIGFAVQGEHLIIVATEDNLLKGAAAQAVQCANIRFGYAETQSLI
B7: ftsI L264A (protein)
chain: MKAAAKTQKPKRQEEHANFISWRFALLCGCILLALAFLLGRVAWLQVISPDMLVKEGDMRSLRVQQVSTSRGMITDRSGRPLAVSVPVKAIWADPKEVHDAGGISVGDRWKALANALNIPLDQLSARINANPKGRFIYLARQVNPDMADYIKKLKLPGIHLREESRRYYPSGEVTAHLIGFTNVDSQGIEGVEKSFDKWLTGQPGERIVRKDRYGRVIEDISSTDSQAAHNLALSIDERLQALVYRELNNAVAFNKAESGSAVAVDVNTGEVLAMANSPSYNPNNLSGTPKEAMRNRTITDVFEPGSTVKPMVVMTALQRGVVRENSVLNTIPYRINGHEIKDVARYSELTLTGVLQKSSNVGVSKLALAMPSSALVDTYSRFGLGKATNLGLVGERSGLYPQKQRWSDIERATFSFGYGLMVTPLQLARVYATIGSYGIYRPLSITKVDPPVPGERVFPESIVRTVVHMMESVALPGGGGVKAAIKGYRIAIKTGTAKKVGPDGRYINKYIAYTAGVAPASQPRFALVVVINDPQAGKYYGGAVSAPVFGAIMGGVLRTMNIEPDALTTGDKNEFVINQGEGTGGRS
B8: ftsI V468W (protein)
chain: MKAAAKTQKPKRQEEHANFISWRFALLCGCILLALAFLLGRVAWLQVISPDMLVKEGDMRSLRVQQVSTSRGMITDRSGRPLAVSVPVKAIWADPKEVHDAGGISVGDRWKALANALNIPLDQLSARINANPKGRFIYLARQVNPDMADYIKKLKLPGIHLREESRRYYPSGEVTAHLIGFTNVDSQGIEGVEKSFDKWLTGQPGERIVRKDRYGRVIEDISSTDSQAAHNLALSIDERLQALVYRELNNAVAFNKAESGSAVLVDVNTGEVLAMANSPSYNPNNLSGTPKEAMRNRTITDVFEPGSTVKPMVVMTALQRGVVRENSVLNTIPYRINGHEIKDVARYSELTLTGVLQKSSNVGVSKLALAMPSSALVDTYSRFGLGKATNLGLVGERSGLYPQKQRWSDIERATFSFGYGLMVTPLQLARVYATIGSYGIYRPLSITKVDPPVPGERVFPESIVRTVWHMMESVALPGGGGVKAAIKGYRIAIKTGTAKKVGPDGRYINKYIAYTAGVAPASQPRFALVVVINDPQAGKYYGGAVSAPVFGAIMGGVLRTMNIEPDALTTGDKNEFVINQGEGTGGRS
B9: ftsI V468A (protein)
chain: MKAAAKTQKPKRQEEHANFISWRFALLCGCILLALAFLLGRVAWLQVISPDMLVKEGDMRSLRVQQVSTSRGMITDRSGRPLAVSVPVKAIWADPKEVHDAGGISVGDRWKALANALNIPLDQLSARINANPKGRFIYLARQVNPDMADYIKKLKLPGIHLREESRRYYPSGEVTAHLIGFTNVDSQGIEGVEKSFDKWLTGQPGERIVRKDRYGRVIEDISSTDSQAAHNLALSIDERLQALVYRELNNAVAFNKAESGSAVLVDVNTGEVLAMANSPSYNPNNLSGTPKEAMRNRTITDVFEPGSTVKPMVVMTALQRGVVRENSVLNTIPYRINGHEIKDVARYSELTLTGVLQKSSNVGVSKLALAMPSSALVDTYSRFGLGKATNLGLVGERSGLYPQKQRWSDIERATFSFGYGLMVTPLQLARVYATIGSYGIYRPLSITKVDPPVPGERVFPESIVRTVAHMMESVALPGGGGVKAAIKGYRIAIKTGTAKKVGPDGRYINKYIAYTAGVAPASQPRFALVVVINDPQAGKYYGGAVSAPVFGAIMGGVLRTMNIEPDALTTGDKNEFVINQGEGTGGRS
B10: ftsA V58P (protein)
chain: MIKATDRKLVVGLEIGTAKVAALVGEVLPDGMVNIIGVGSCPSRGMDKGGVNDLESVPKCVQRAIDQAELMADCQISSVYLALSGKHISCQNEIGMVPISEEEVTQEDVENVVHTAKSVRVRDEHRVLHVIPQEYAIDYQEGIKNPVGLSGVRMQAKVHLITCHNDMAKNIVKAVERCGLKVDQLIFAGLASSYSVLTEDERELGVCVVDIGGGTMDIAVYTGGALRHTKVIPYAGNVVTSDIAYAFGTPPSDAEAIKVRHGCALGSIVGKDESVEVPSVGGRPPRSLQRQTLAEVIEPRYTELLNLVNEEILQLQEKLRQQGVKHHLAAGIVLTGGAAQIEGLAACAQRVFHTQVRIGAPLNITGLTDYAQEPYYSTAVGLLHYGKESHLNGEAEVEKRVTASVGSWIKRLNSWLRKEF
B11: ftsA L382W (protein)
chain: MIKATDRKLVVGLEIGTAKVAALVGEVLPDGMVNIIGVGSCPSRGMDKGGVNDLESVVKCVQRAIDQAELMADCQISSVYLALSGKHISCQNEIGMVPISEEEVTQEDVENVVHTAKSVRVRDEHRVLHVIPQEYAIDYQEGIKNPVGLSGVRMQAKVHLITCHNDMAKNIVKAVERCGLKVDQLIFAGLASSYSVLTEDERELGVCVVDIGGGTMDIAVYTGGALRHTKVIPYAGNVVTSDIAYAFGTPPSDAEAIKVRHGCALGSIVGKDESVEVPSVGGRPPRSLQRQTLAEVIEPRYTELLNLVNEEILQLQEKLRQQGVKHHLAAGIVLTGGAAQIEGLAACAQRVFHTQVRIGAPLNITGLTDYAQEPYYSTAVGWLHYGKESHLNGEAEVEKRVTASVGSWIKRLNSWLRKEF
B12: ftsH I247A (protein)
chain: MAKNLILWLVIAVVLMSVFQSFGPSESNGRKVDYSTFLQEVNNDQVREARINGREINVTKKDSNRYTTYIPVQDPKLLDNLLTKNVKVVGEPPEEPSLLASIFISWFPMLLLIGVWIFFMRQMQGGGGKGAMSFGKSKARMLTEDQIKTTFADVAGCDEAKEEVAELVEYLREPSRFQKLGGKIPKGVLMVGPPGTGKTLLAKAIAGEAKVPFFTISGSDFVEMFVGVGASRVRDMFEQAKKAAPCAIFIDEIDAVGRQRGAGLGGGHDEREQTLNQMLVEMDGFEGNEGIIVIAATNRPDVLDPALLRPGRFDRQVVVGLPDVRGREQILKVHMRRVPLAPDIDAAIIARGTPGFSGADLANLVNEAALFAARGNKRVVSMVEFEKAKDKIMMGAERRSMVMTEAQKESTAYHEAGHAIIGRLVPEHDPVHKVTIIPRGRALGVTFFLPEGDAISASRQKLESQISTLYGGRLAEEIIYGPEHVSTGASNDIKVATNLARNMVTQWGFSEKLGPLLYAEEEGEVFLGRSVAKAKHMSDETARIIDQEVKALIERNYNRARQLLTDNMDILHAMKDALMKYETIDAPQIDDLMARRDVRPPAGWEEPGASNNSGDNGSPKAPRPVDEPRTPNPGNTMSEQLGDK
B13: ftsH V233A (protein)
chain: MAKNLILWLVIAVVLMSVFQSFGPSESNGRKVDYSTFLQEVNNDQVREARINGREINVTKKDSNRYTTYIPVQDPKLLDNLLTKNVKVVGEPPEEPSLLASIFISWFPMLLLIGVWIFFMRQMQGGGGKGAMSFGKSKARMLTEDQIKTTFADVAGCDEAKEEVAELVEYLREPSRFQKLGGKIPKGVLMVGPPGTGKTLLAKAIAGEAKVPFFTISGSDFVEMFVGVGASRARDMFEQAKKAAPCIIFIDEIDAVGRQRGAGLGGGHDEREQTLNQMLVEMDGFEGNEGIIVIAATNRPDVLDPALLRPGRFDRQVVVGLPDVRGREQILKVHMRRVPLAPDIDAAIIARGTPGFSGADLANLVNEAALFAARGNKRVVSMVEFEKAKDKIMMGAERRSMVMTEAQKESTAYHEAGHAIIGRLVPEHDPVHKVTIIPRGRALGVTFFLPEGDAISASRQKLESQISTLYGGRLAEEIIYGPEHVSTGASNDIKVATNLARNMVTQWGFSEKLGPLLYAEEEGEVFLGRSVAKAKHMSDETARIIDQEVKALIERNYNRARQLLTDNMDILHAMKDALMKYETIDAPQIDDLMARRDVRPPAGWEEPGASNNSGDNGSPKAPRPVDEPRTPNPGNTMSEQLGDK

± gives the standard deviation of the averaged measurements. Laboratory Escherichia coli strains with one amino-acid change in an essential protein, pooled on minimal glucose agar with carbenicillin or gentamicin at twice the control MIC (plus kanamycin and chloramphenicol for the plasmids), 48 h. Fold change of barcode share against drug-free plates; higher = less susceptible. Active = above 20 in both replicates (the paper's putatively resistant). '<' = one read or none on drug, '>' = one read or none on a drug-free plate. Shares are relative, so most strains fall below 1 when a few take over. Listed are strains with at least 15 reads on both drug-free plates, and hits; most hits rest on fewer reference reads. Replicate rank correlation about 0.5. Edits are read from barcodes.

The first series addresses Escherichia coli (laboratory strain). Briefly: barcode share on antibiotic plates over drug-free plates; higher = less susceptible. The following applies: antibiotic: carbenicillin; 2× MIC (3.1 µg/mL). The procedure: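 A pool of E. coli strains, each edited to carry one amino-acid change in an essential protein, was grown for 48 h on minimal glucose agar with or without antibiotic; strain barcodes were sequenced; mean of two replicates.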
For B1, the “fold change of barcode share” value was found to be 0.304 ± 0.038.
For B2, the “fold change of barcode share” value is 0.273 ± 0.035.
Turning to B3, the “fold change of barcode share” value was 0.274 ± 0.034.
On to B4, for which the “fold change of barcode share” value was 0.276 ± 0.043.
As to B5, the “fold change of barcode share” value amounted to 0.394 ± 0.051.
B6: the “fold change of barcode share” value amounted to 5.74 ± 1.3.
For B7, the “fold change of barcode share” value is 0.416 ± 0.24.
On the same count and under the same terms, the same measure for B8: 97.1 [active]; for B9: 0.337 ± 0.36; for B10: 0.442 ± 0.13.
Take B11: the “fold change of barcode share” value came out at 0.925 ± 0.6.
Still for that read-out and setting: the figure for B12 is 0.933 ± 0.095; for B13 it is 0.0979 ± 0.019.

The same series, now with this note: antibiotic: gentamicin; 2× MIC (MIC 0.45 µg/mL).
In the case of B1, the “fold change of barcode share” value was less than 0.00141.
On the same count and under the same terms, the same measure for B2: 0.0375 ± 0.046; for B3: 0.00508 ± 0.0046.
With B4, the “fold change of barcode share” value is 0.00517 ± 0.005.
In the case of B5, the “fold change of barcode share” value is 0.0143 ± 0.012.
Consider B6, for which the “fold change of barcode share” value was less than 0.01.
With B7, the “fold change of barcode share” value was 0.00188 ± 0.0016.
As for B8, the “fold change of barcode share” value is 0.0109 ± 0.0086.
In the case of B9, the “fold change of barcode share” value amounted to 0.0141 ± 0.002.
As to B10, the “fold change of barcode share” value is less than 0.0132.
Regarding B11, the “fold change of barcode share” value came out at 0.0126 ± 0.0006.
Consider B12, for which the “fold change of barcode share” value is less than 0.012.
Turning to B13, the “fold change of barcode share” value is 0.0119 ± 0.009.

These data come from the supplement of paper PMC11876631.
